Measurements as given in PubChem BioAssay AID1454 (National Center for Advancing Translational Sciences (NCATS), 2008).
Among all 130,000 compounds or so, about 550 (0.42%) were called active. This list was built around the results that the source calls inconclusive (neither active nor inactive); the mix of calls is not that of the screen. The call rests on the fitted dose curve; in most records, active means well fitted inhibition curve with a large enough effect; inconclusive means small, poorly fitted or top-dose-only effect, or effect the other way; inactive means flat fitted curve, though single readings scatter. Potencies of inconclusive entries are left out as doubtful fits.

Experiment: qHTS Assay for Inhibitors of the ERK Signaling Pathway using a Homogeneous Screening Assay; Stimulation with EGF; further: nearly all actives have a fitted effect of over 55% in size
Conditions: HEK293-V1b, EGF-stimulated phospho-ERK AlphaScreen
Summary of the method: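 After overnight plating in 1% FBS, HEK293-V1b cells received test compound for half an hour, then a 5 min pulse of EGF (25 nM); ERK phosphorylation in lysates was read by bead-based AlphaScreen.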
Potency means the concentration at half of the fitted maximal effect; tags describe the fitted curve by direction and shape.

SMILES | Potency
Cc1ccc(-c2cn(S(=O)(=O)c3cccc([N+](=O)[O-])c3)nc2N)cc1 | inconclusive [inhibitor, single point]
S=C(NCCc1ccccc1)Nc1ccc(Nc2ccccc2)cc1 | inconclusive [inhibitor, partial curve]
O=C(N[C@@H](Cc1ccccc1)C(=O)OCc1ccccc1)c1nc[nH]c1C(=O)NC(c1ccccc1)c1ccccc1 | active: 39.8 µM
C/C(C/C(C)=C1/SC(=S)NC1=O)=C1\SC(=S)NC1=O | inconclusive [inhibitor, single point]
CN(C)c1ccc(C2SCCN2C(=O)c2ccc([N+](=O)[O-])cc2)cc1 (stereo not drawn) | inconclusive [inhibitor, single point]
CN(C)c1ccc(C(=S)N2CCN(c3ccc([N+](=O)[O-])cc3)CC2)cc1 | inconclusive [inhibitor, single point]
CCCc1cc(=O)oc2c3c(c4c(c12)OC(C)(C)C=C4)OC(C)C(C)C3O (stereo not drawn) | inconclusive [inhibitor, single point]
CCCCC/C=C\C/C=C\C/C=C\CCCCCCC(=O)NCC(=O)O | inactive
CCN(CC)C(=S)Nc1ccc(OC(F)F)cc1 | inconclusive [inhibitor, single point]
CCOC(=O)N/N=C/c1ccccc1-c1cc(OC)ccc1OC | inactive
O=C1N[C@H](Cc2ccccc2)C(=O)N1Cc1cccc2ccccc12 | inactive
CCC(=O)OCC(=O)[C@@]1(OC(=O)CC)[C@H](C)C[C@@H]2[C@@H]3[C@H]([C@@H](O)C[C@@]21C)[C@]1(C)C=CC(=O)C=C1C[C@@H]3Cl | inactive
N#C/C(=C\c1ccc(O)c(O)c1)C(=O)NCCCc1ccccc1 | inconclusive [inhibitor, single point]
CCOC(=O)c1c(-c2ccc(C)cc2)csc1/N=C(\C)C1=C(O)c2ccccc2C1=O | inconclusive [inhibitor, partial curve]
COc1ccc(C(=O)C(CCC(CNC(C)(C)C)C(=O)c2ccc(OC)cc2)CNC(C)(C)C)cc1 (stereo not drawn) | inactive
Oc1ccc(/C=N/N=C(c2ccccc2)c2ccccc2)c(O)c1O | inconclusive [inhibitor, single point]
Cc1occc1C(=O)O/N=C(\N)c1ccccc1 | inactive
CC(C)C(C(=O)Nc1ccc(S(N)(=O)=O)cc1)N1C(=O)c2ccccc2C1=O (stereo not drawn) | inactive
CCN(C(=O)CSc1nc2ccc([N+](=O)[O-])cc2s1)C1CCS(=O)(=O)C1 (stereo not drawn) | inconclusive [inhibitor, single point]
CCN(CC)C(=S)SCC(=O)Nc1ncc2c(n1)CC(C)(C)CC2=O | inactive
COc1ccccc1NC(=O)/C(C#N)=C/c1cc([N+](=O)[O-])ccc1N1CCCC1 | inactive
Cc1ccc(C(=O)NC(=S)/C=C2\N(C)c3ccccc3C2(C)C)cc1 | active: 25.1 µM
O=C1C=CC(=O)c2c(O)c(Cl)c(Cl)c(O)c21 | inconclusive [inhibitor, single point]

SMILES | Potency
O=C(/C=C/c1ccc(Cl)cc1Cl)NCCSCc1ccccc1 | inconclusive [inhibitor, single point]
CC(=O)Nc1cc(C(=O)O)ccc1S(=O)(=O)c1ccc(Cl)cc1 | inconclusive [inhibitor, single point]
CCN(C(=O)c1ccc2c(Cl)c3c(nc2c1)CCC3)c1ccc(C)c(C)c1 | inconclusive [inhibitor, single point]
N#C/C(=C\c1ccc(-c2ccccc2[N+](=O)[O-])o1)C(N)=O | inactive
COC(=O)c1cnn(-c2nc(OC)cc(OC)n2)c1C | inactive
COc1ccc(CS(=O)/C(Cl)=C(/Cl)C(=O)Nc2ccc(OC)nc2)cc1 (stereo not drawn) | inconclusive [inhibitor, single point]
CN(C)Cc1ccccc1-c1cncnc1Nc1ccc(F)cc1 | inactive
CC(=O)c1c(C)[nH]c(C(=O)OCc2ccccc2)c1C | inconclusive [inhibitor, full curve, poor fit]
O=[N+]([O-])c1cc(/C=N/O)ccc1Oc1ccccc1Cl | inconclusive [activator, partial curve, poor fit]
CCCCC[C@H](O)/C=C/[C@@H]1[C@H]2C/C(=C/CCCC(=O)O)C[C@H]2C[C@H]1O | inactive
O=C(N/N=C/c1cn(-c2ccccc2)nc1-c1cc2ccccc2o1)c1cccnc1 | active: 7.08 µM
CCOc1ccc(Oc2c(C)oc3cc(O)ccc3c2=O)cc1 | inconclusive [inhibitor, partial curve]
CN(C)CCOc1ccc(Cl)cc1C(C)(C)C | inconclusive [inhibitor, single point]
O=[N+]([O-])c1ccc(/C=N/Nc2nc(N3CCCCC3)nc(N3CCCCC3)n2)cc1 | inactive
O=[N+]([O-])c1ccccc1-c1ccc(C(=S)N2CCCC2)o1 | inconclusive [inhibitor, single point]
O=[N+]([O-])c1cccn2cc(-c3ccc(Br)cc3)nc12 | inconclusive [inhibitor, single point]
COc1cccc(/C=C/C(=O)OCC(=O)Nc2ccc(N3CCOCC3)cc2)c1OC | inconclusive [activator, full curve, poor fit]
CCn1c2ccccc2c2cc(NC(=O)c3ccccc3-c3ccccc3C(=O)O)ccc21 | inconclusive [inhibitor, single point]
N#C/C(=C/c1ccccc1[N+](=O)[O-])c1nc(C2CC2)cs1 | inconclusive [inhibitor, partial curve]
CO[C@]1(NC(=O)C2SC(=C(C(N)=O)C(=O)O)S2)C(=O)N2C(C(=O)O)=C(CSc3nnnn3C)CS[C@H]21 (stereo partly drawn) | inactive
Cc1cccc(Cl)c1NC(=S)N1CCN(c2ccc([N+](=O)[O-])cn2)CC1 | inconclusive [inhibitor, single point]
CC1=NN(c2ccccc2)C(=O)/C1=C\C=C1/N(C)c2ccccc2C1(C)C | active: 12.6 µM
C=CCn1c(O)c(N=NC(=S)Nc2ccc(OC)c(Cl)c2)c2ccccc21 | inconclusive [inhibitor, single point]

SMILES | Potency
Cc1cc(C)n(-c2nc(Nc3ccccc3C(F)(F)F)nc(-n3nc(C)cc3C)n2)n1 | inconclusive [inhibitor, single point]
COc1ccc(NC(=S)NCCN2CCC(C)CC2)cc1Cl | inconclusive [activator, full curve, poor fit]
CC(C)OC(=O)C(C)(C)Oc1ccc(C(=O)c2ccc(Cl)cc2)cc1 | inconclusive [activator, single point]
Brc1ccc(-c2ncc3ccccn23)cc1 | inconclusive [inhibitor, partial curve]
CC(C)C[C@@H](CC(=O)N[C@H](CC(=O)N[C@@H]1CCNC[C@H]1C(=O)N[C@H](CC(=O)N[C@@H](CCC(=O)O)CC(=O)O)Cc1ccccc1)C(C)C)NC(=O)[C@@H]1CNCC[C@H]1N | inactive
O=C(O)COCCN1CCN([C@@H](c2ccccc2)c2ccc(Cl)cc2)CC1 | inactive
c1ccc2c(c1)CCN(C1=Nc3cccc4cccc1c34)C2 | inconclusive [inhibitor, partial curve]
O=C(Nc1ccccc1N1CCN(C(=O)c2ccccc2)CC1)c1cccc(Cl)c1 | inactive
Cc1nn(Cc2ccc(Cl)cc2Cl)c(C)c1NC(=O)CCl | inactive
Cc1c([N+](=O)[O-])c(C(=O)Sc2ccc(Br)cc2)nn1C | inconclusive [activator, partial curve, poor fit]
COC(=O)c1c(C)nn(-c2ccc(OC(F)(F)F)cc2)c1-c1snnc1C | inconclusive [inhibitor, single point]
Cc1nn(-c2ccccc2)c(N)c1N=Nc1cccc(S(=O)(=O)N2CCOCC2)c1 | inconclusive [inhibitor, partial curve]
CCCCNC(=O)C1CCCN(S(=O)(=O)c2c(C)noc2/C=C/c2cccs2)C1 (stereo not drawn) | inconclusive [inhibitor, single point]
Brc1ccccc1-c1nnc(COc2ncnc3ccccc23)o1 | inconclusive [inhibitor, single point]
Cc1ccc(S(=O)(=O)Nc2ccccc2C(=O)Nc2nc(-c3ccc(F)cc3)cs2)cc1 | inactive
O=C(COC(=O)c1cccnc1Cl)Nc1nc(-c2ccccc2)cs1 | inconclusive [inhibitor, single point]
COc1ccc(/C=N/NC(=O)CCCOc2ccc(Cl)cc2Cl)cc1 | inconclusive [inhibitor, single point]
Cc1cc(=O)[nH]c(N/N=C/c2c(C)nn(-c3ccccc3Cl)c2Cl)n1 | inconclusive [inhibitor, partial curve]
Cc1nn(-c2ccccc2)c(Cl)c1/C=N/N1CCN(c2ccccn2)CC1 | inconclusive [inhibitor, partial curve]
COC(=O)c1ccc(C(NC(=O)OCc2ccccc2)/C(C)=C/[C@@H](C)C(=O)NCCN2CCOCC2)cc1 (stereo partly drawn) | inactive
O=C(Nc1ccncc1)c1cc([N+](=O)[O-])ccc1Cl | inactive
CCCCN(C)CCC(=O)Nc1ccc2c(c1)CCC2 | inconclusive [inhibitor, single point]
